Test results taken from the supplement of paper PMC3334620.
The full ranking holds about 33,000 sequences; the median of “E-score (-0.5 to 0.5)” is about -0.017, and the highest 2% start at about 0.3. This is one part of the list.

Target: T1, Sut1 (UniProt P53032)
T1 sequence: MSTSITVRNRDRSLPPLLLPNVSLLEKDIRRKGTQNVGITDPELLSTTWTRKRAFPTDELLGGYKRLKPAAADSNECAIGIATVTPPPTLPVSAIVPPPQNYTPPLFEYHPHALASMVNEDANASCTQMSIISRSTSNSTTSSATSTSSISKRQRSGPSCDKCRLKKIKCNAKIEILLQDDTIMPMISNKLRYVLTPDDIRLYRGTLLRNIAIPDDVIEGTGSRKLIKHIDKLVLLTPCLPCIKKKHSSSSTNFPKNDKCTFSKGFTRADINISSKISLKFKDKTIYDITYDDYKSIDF
Experiment: PBM E-score (8-mer binding enrichment) (E-score (-0.5 to 0.5)); higher = stronger / more preferred TF binding; most listed sequences are background and not binding sites
Settings: protein concentration: 200 nM; construct: GST-full length
Outline: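 Using PURExpress in vitro transcription/translation, GST-tagged yeast transcription factors were made in full-length or DNA-binding-domain form. These were applied at about 100-200 nM to double-stranded universal all-10-mer Agilent arrays, and bound protein was detected with fluorescent anti-GST. Scans were normalised with masliner before the Universal PBM Analysis Suite assigned E-scores to ungapped eight-base words pooled with their reverse complements.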

Sequence | PBM E-score
GGTTCGAC | -0.164
CAACCATC | 0.00256
AACGGGCC | -0.172
CAGAGAGC | -0.19
ACTACGCA | -0.00835
CCATCCCA | -0.0246
AATGTGTC | 0.116
TGACACAA | -0.0202
CCCTTAGA | -0.208
CGTTCTCA | -0.184
AGAATTAC | 0.153
CCAGACCA | -0.139
GAATGTCA | -0.145
CTCACACA | -0.215
GCTAGAAA | 0.0408
TAGCCATA | -0.198
ATGGGAGC | -0.0291
ACGCTAGC | -0.209
CTATGCAC | -0.28
TGAGCCAA | -0.0194
GACACACC | -0.0839
AAGAATTG | 0.136
GATGCGCC | -0.186
CAACTGGA | -0.209

Sequence | PBM E-score
ACCCAGTA | -0.284
AACCGTGG | -0.178
CCGCGCGC | -0.125
ACGAACGG | 0.0845
CAAGCGAG | -0.0477
CATCCCCA | -0.28
GCATAGAA | -0.0187
AATAGAGA | 0.0122
CATTAATA | 0.151
ACGTCTCG | -0.101
GTGGAGTA | -0.101
ATGTGCAC | -0.0356
AGAGTCCC | -0.0834
AAGCAGCT | 0.0273
CTGCTGCC | -0.319
ATCTCTTA | 0.134
GGTAGACA | 0.0393
GTACATAA | 0.137
AGGTGAAG | 0.00569
TGTCGACA | -0.241
AAGGAATT | 0.0671
ACTGCAGC | -0.143
ATCGGCAA | 0.104
ACCGCCAC | -0.0951

Sequence | PBM E-score
GCCGCCCC | -0.156
ATTTACAG | 0.0668
AAGTGTCT | 0.0288
AAAGAGTC | -0.0103
GCACCGCA | -0.314
ACAGATTC | 0.162
CCAGCCAG | -0.268
AGATATTA | 0.211
TACCTTCA | 0.0289
GCGATCCA | -0.121
AGACGCCA | -0.152
CGACGCCC | -0.103
CCGCTTAA | -0.0717
ACCTGGGG | -0.379
AGGCTATA | -0.185
GGACTGGA | -0.0583
TAAGAGTA | 0.226
CTGCATTA | -0.182
CCAGAGGC | -0.23
CATGATCA | 0.139
AACGCGGG | -0.0199
AATGAAAC | 0.175
CACCGAGG | 0.0171
GATCAAGA | 0.153

Sequence | PBM E-score
CATCAGCC | -0.133
ACCCTGGG | -0.279
ACCTCCTG | -0.151
AAACTCGG | 0.28
CAGGTACC | -0.265
CCTCCTCG | -0.232
GAACGGGC | -0.129
GAAGCGTC | -0.102
AGTCTGCG | -0.324
ACTACAAC | 0.266
TATGGGAA | -0.0335
AAAAACGA | 0.195
CACGCAGA | 0.0407
TCTCCGCA | 0.225
GTTGGGGA | -0.0953
AGTGGGTA | -0.0318
AGACCGAT | 0.0576
AGCATCCC | -0.2
CACATGGG | -0.262
CCTCCCGC | -0.19
ACAGGACC | -0.108
GCTGACCA | -0.0367
